# Test results: the supplement of paper PMC4967469
# pIC50: −log10 of the molar value. A lower IC50 marks a more sensitive line; where the fit passes the top or lowest dose, that dose stands as a limit. The AUC spans the tested range (256-fold, ending at the top dose) of the same fit; values near 1 show little effect. For some assays here: An inferred top dose is not printed in the source and was worked back from the curve model.
# Legend:
# Assay in all cases: Viability of human cancer cell lines after 72 h of drug (GDSC screen)
# Paclitaxel = compound: CC(=O)O[C@H]1C(=O)[C@@]2(C)[C@H]([C@H](OC(=O)c3ccccc3)[C@]3(O)C[C@H](OC(=O)[C@H](O)[C@@H](NC(=O)c4ccccc4)c4ccccc4)C(C)=C1C3(C)C)[C@]1(OC(C)=O)CO[C@@H]1C[C@@H]2O [Paclitaxel]; settings: top dose 0.1024 µM
# Method: (§1)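 Human cancer cell lines in 384-well plates, medium with 10% serum, drug for 72 h over a 256-fold dose range (nine 2-fold or five 4-fold steps up to the top dose). Adherent lines were fixed and stained with the nucleic acid dye Syto60, suspension lines read with resazurin; signal relative to control wells, capped at 0 and 100%. One two-parameter sigmoid per drug and line, fitted in a mixed model over all curves with the slope shared within a line.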
# Bortezomib = compound: CC(C)C[C@H](NC(=O)[C@H](Cc1ccccc1)NC(=O)c1cnccn1)B(O)O [Bortezomib]; settings: top dose 0.02 µM
# Method: as §1
# Obatoclax mesylate = compound: COC1=CC(c2cc3ccccc3[nH]2)=N/C1=C\c1[nH]c(C)cc1C [Obatoclax mesylate]; settings: top dose 16 µM
# Method: as §1
# CP724714 = compound: COCC(=O)NC/C=C/c1ccc2ncnc(Nc3ccc(Oc4ccc(C)nc4)c(C)c3)c2c1 [CP724714]; settings: top dose 10.24 µM; top dose inferred
# Method: as §1
# STF-62247 = compound: Cc1cccc(Nc2nc(-c3ccncc3)cs2)c1 [STF-62247]; settings: top dose 10.24 µM; top dose inferred
# Method: as §1
# CX-5461 = compound: Cc1cnc(CNC(=O)c2c(=O)c3ccc(N4CCCN(C)CC4)nc3n3c2sc2ccccc23)cn1 [CX-5461]; settings: top dose 10.24 µM; top dose inferred
# Method: as §1
Cell Line,AUC (Paclitaxel),pIC50 (Paclitaxel),AUC (Bortezomib),pIC50 (Bortezomib),AUC (Obatoclax mesylate),pIC50 (Obatoclax mesylate),AUC (CP724714),pIC50 (CP724714),AUC (STF-62247),pIC50 (STF-62247),AUC (CX-5461),pIC50 (CX-5461)
"COLO-320-HSR (large intestine, suspension)",0.938,< 6.99,0.681,8.43,0.247,6.68,0.972,< 4.99,0.962,< 4.99,0.971,< 4.99
"COLO-684 (endometrium, suspension)",0.729,7.50,0.669,8.41,0.342,6.46,0.966,< 4.99,0.984,< 4.99,0.794,5.27
"COLO-800 (melanoma, adherent)",0.985,< 6.99,0.848,7.84,0.261,6.67,0.96,< 4.99,0.981,< 4.99,0.862,5.08
"COLO-824 (breast, adherent)",0.966,< 6.99,0.981,< 7.70,0.377,6.34,0.954,< 4.99,0.964,< 4.99,0.931,< 4.99
"COLO-829 (melanoma, adherent)",0.957,< 6.99,0.438,9.11,0.478,6.07,0.972,< 4.99,0.979,< 4.99,0.951,< 4.99
"COR-L88 (small cell lung carcinoma, adherent)",0.795,7.24,0.664,8.41,0.801,5.02,0.981,< 4.99,0.982,< 4.99,0.986,< 4.99
"COR-L95 (small cell lung carcinoma, adherent)",0.901,< 6.99,0.744,8.15,0.907,< 4.80,0.984,< 4.99,0.98,< 4.99,0.502,6.19
"COR-L279 (small cell lung carcinoma, suspension)",0.6,7.93,0.785,,0.425,6.19,0.98,< 4.99,0.971,< 4.99,0.879,5.07
"CP66-MEL (melanoma, adherent)",0.941,< 6.99,0.397,9.20,0.478,6.06,0.978,< 4.99,0.973,< 4.99,0.985,< 4.99
"CPC-N (small cell lung carcinoma, suspension)",0.717,7.55,0.616,8.57,0.599,5.72,0.978,< 4.99,0.985,< 4.99,0.896,< 4.99
"CTB-1 (B-cell lymphoma, suspension)",0.776,7.25,0.718,8.18,0.291,6.69,0.974,< 4.99,0.938,< 4.99,0.65,5.71
"CTV-1 (acute myeloid leukaemia, suspension)",0.653,7.81,0.582,8.70,0.129,7.01,0.983,< 4.99,0.893,5.10,0.706,5.67
"CW-2 (large intestine, adherent)",0.989,< 6.99,0.988,< 7.70,0.989,< 4.80,0.948,< 4.99,0.98,< 4.99,0.888,< 4.99
"D-263MG (glioma, adherent)",0.824,7.10,0.482,8.96,0.632,5.60,0.981,< 4.99,0.969,< 4.99,0.978,< 4.99
"D-283MED (medulloblastoma, adherent)",0.991,< 6.99,0.753,8.21,0.522,5.94,0.987,< 4.99,0.991,< 4.99,0.972,< 4.99
"D-502MG (glioma, adherent)",0.965,< 6.99,0.706,8.18,0.754,5.08,0.95,< 4.99,0.96,< 4.99,0.887,< 4.99
"DB (B-cell lymphoma, suspension)",0.915,< 6.99,0.536,8.80,0.306,6.58,0.978,< 4.99,0.682,5.66,0.79,5.28
"DEL (lymphoid neoplasm, suspension)",0.568,8.03,0.729,8.33,0.231,6.69,0.98,< 4.99,0.993,< 4.99,0.926,< 4.99
"DG-75 (Burkitt lymphoma, suspension)",0.735,7.52,0.759,8.15,0.741,5.31,0.983,< 4.99,0.983,< 4.99,0.96,< 4.99
"DJM-1 (skin, adherent)",0.536,8.10,0.611,8.60,0.244,6.73,0.982,< 4.99,0.988,< 4.99,0.989,< 4.99
"DMS-79 (small cell lung carcinoma, suspension)",0.949,< 6.99,0.931,< 7.70,0.914,< 4.80,0.98,< 4.99,0.987,< 4.99,0.881,< 4.99
"DND-41 (T-cell leukaemia, suspension)",0.876,7.09,0.405,9.15,0.115,7.14,0.99,< 4.99,0.797,5.38,0.436,6.36

Cell Line,AUC (Paclitaxel),pIC50 (Paclitaxel),AUC (Bortezomib),pIC50 (Bortezomib),AUC (Obatoclax mesylate),pIC50 (Obatoclax mesylate),AUC (CP724714),pIC50 (CP724714),AUC (STF-62247),pIC50 (STF-62247),AUC (CX-5461),pIC50 (CX-5461)
"DSH1 (bladder, adherent)",0.978,< 6.99,0.299,9.46,0.61,5.70,0.746,5.51,0.989,< 4.99,0.989,< 4.99
"Daudi (Burkitt lymphoma, suspension)",0.647,7.81,0.485,8.94,0.127,7.08,0.985,< 4.99,0.943,< 4.99,0.595,5.95
"EB2 (Burkitt lymphoma, suspension)",0.982,< 6.99,0.868,7.81,0.054,> 7.20,0.964,< 4.99,0.947,< 4.99,0.919,< 4.99
"EB-3 (Burkitt lymphoma, suspension)",0.898,< 6.99,0.592,8.63,0.262,6.73,0.972,< 4.99,0.89,< 4.99,0.923,< 4.99
"EC-GI-10 (oesophagus, adherent)",0.903,< 6.99,0.891,< 7.70,0.898,< 4.80,0.989,< 4.99,0.985,< 4.99,0.987,< 4.99
"EKVX (lung adenocarcinoma, adherent)",0.963,< 6.99,0.566,8.63,0.542,5.83,0.943,< 4.99,0.97,< 4.99,0.97,< 4.99
"EM-2 (chronic myeloid leukaemia, suspension)",0.794,7.27,0.472,8.98,0.652,5.55,0.974,< 4.99,0.972,< 4.99,0.93,< 4.99
"ES1 (Ewing sarcoma, adherent)",0.635,7.82,0.887,< 7.70,0.237,6.75,0.986,< 4.99,0.969,< 4.99,0.32,6.69
"ES3 (Ewing sarcoma, adherent)",0.975,< 6.99,0.875,< 7.70,0.247,6.75,0.898,< 4.99,0.985,< 4.99,0.924,< 4.99
"ES4 (Ewing sarcoma, adherent)",0.458,8.32,0.573,8.69,0.176,7.06,0.888,< 4.99,0.961,< 4.99,0.753,5.41
"ES5 (Ewing sarcoma, adherent)",0.974,< 6.99,0.808,7.91,0.374,6.37,0.968,< 4.99,0.91,< 4.99,0.66,5.72
"ES6 (Ewing sarcoma, adherent)",0.731,7.46,0.114,> 10.11,0.236,6.85,0.966,< 4.99,0.945,< 4.99,0.789,5.24
"ES7 (Ewing sarcoma, adherent)",0.982,< 6.99,0.429,9.10,0.148,7.11,0.937,< 4.99,0.933,< 4.99,0.442,6.36
"ES8 (Ewing sarcoma, adherent)",0.499,8.20,0.332,9.35,0.162,6.99,0.975,< 4.99,0.958,< 4.99,0.645,5.81
"ETK-1 (biliary tract, adherent)",0.351,8.63,0.65,8.46,0.166,7.09,0.942,< 4.99,0.886,< 4.99,0.543,6.07
"EW-1 (Ewing sarcoma, semi-adherent)",0.427,8.39,0.741,8.24,0.108,> 7.20,0.952,< 4.99,0.966,< 4.99,0.671,5.74
"EW-3 (Ewing sarcoma, adherent)",0.856,7.00,0.902,< 7.70,0.652,5.55,0.984,< 4.99,0.983,< 4.99,0.778,5.32
"EW-11 (Ewing sarcoma, adherent)",0.981,< 6.99,0.921,< 7.70,0.649,5.53,0.98,< 4.99,0.98,< 4.99,0.804,5.15
"EW-13 (Ewing sarcoma, suspension)",0.983,< 6.99,0.944,< 7.70,0.224,6.85,0.983,< 4.99,0.915,< 4.99,0.745,5.45
"EW-18 (Ewing sarcoma, suspension)",0.96,< 6.99,0.873,< 7.70,0.233,6.80,0.982,< 4.99,0.985,< 4.99,0.81,5.23
"EW-24 (Ewing sarcoma, semi-adherent)",0.84,7.23,0.567,8.73,0.338,6.42,0.993,< 4.99,0.918,< 4.99,0.993,< 4.99
